Certain results were filed several times, with different values. The other results are left out here. The source may hold further records. The records of an entry repeat one measurement in other runs, samples, wells, individuals or studies.

The experiment concerns 227483-062-R1-J1-PDC complex spheroids with HUVEC/MSC, viability. Kind of experiment: Anticancer human tumor 227483-062-R1-J1-PDC patient-derived pancreatic carcinoma cell line growth inhibition [CLK]. As to conditions: compound alone; run of 09/19/2023. An excerpt: A high-throughput screen of multi-cell type tumor spheroids was designed to identify active combinations of […] and targeted small molecules. Complex spheroids include a stromal component modeled by human endothelial cells (HUVEC) and fibroblasts modeled by human mesenchymal stem cells (MSCs). The concentration ranges selected for each drug and investigational agent were based upon clinically achievable concentrations if the clinical Cmax of the agent was known.
Compounds. The drugs and investigational agents: cirtuvivint (SM08502; NSC835563), CC-671 (NSC850746), vemurafenib (NSC761431), tapotoclax (NSC804041), sotorasib (NSC818433), adagrasib (NSC831453), MRTX-1133 (NSC836407), BAY2416964 (NSC825713), copanlisib (NSC816437), inavolisib (NSC800729), abemaciclib (NSC768073), osimertinib (NSC779217), entinostat (NSC756642), eltanexor (KPT-8602, NSC794443), venetoclax (NSC766270), ceralasertib (NSC777638), bortezomib (NSC756655), olaparib (NSC753686), talazoparib (NSC767125), alisertib (NSC759677), peposertib (NSC802822), gemcitabine (NSC613327), 5-fluorouracil (NSC19893), SN-38 (NSC673596), oxaliplatin (NSC266046), paclitaxel (NSC125973), and doxorubicin (NSC123127), were obtained from the National Cancer Institute (NCI) Developmental Therapeutics Program Chemical Repository. […] If the clinical Cmax for an agent had not been determined, the highest concentration tested was 10 microM. […]
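Note: spheroids exposed to compounds for seven days before readout.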

`CNC(=O)c1ccc(Nc2nc(OC3CCCC3)c3c(-c4ccc5nc(C)oc5c4)c[nH]c3n2)c(OC)c1`: the 50% inhibitory concentration (IC50) was 1.87, 2.96, 2.13, 2.87, 1.64, 2.57, 2.07, 1.67, 6.53, 3.48, 5.7 µM.

One may read the IC50 as the concentration that inhibits the measured activity by half.

(Values after PubChem BioAssay AID2060623 (Molecular Pharmacology Branch, DTP, NCI, 2025).)
